# Data reported in ChEMBL document CHEMBL4888484, “Replenishing the malaria drug discovery pipeline: Screening and hit evaluation of the MMV Hit Generation Library 1 (HGL1) against asexual blood stage Plasmodium falciparum ,using a nano luciferase reporter read-out” (2022).
# Hit rate of the full screen: of about 150,000 compounds, about 540 (0.36%) showed an effect of 50% or more. This is one part of the list.
# System: Plasmodium falciparum
# Assay: Primary screen in NF54 nanoGlo assay, in single point, at 2uM, 72h; a lower Z score goes with more inhibition
# Assay type: functional, Erythrocyte
# Conditions: timepoint 72 hour
SMILES,% Inhibition [%],Z score
Cc1ccc(C)c(S(=O)(=O)NCCN[C@@H](C)c2cn[nH]c2C)c1,-6,0.74
COCCN(Cc1cc(NC(=O)NC(C)(C)C)ccc1N(C)C)C(=O)c1cccs1,-11,1.54
Cc1cc(C(=O)N(CCC#N)C2CC2)c2c(-c3ccco3)noc2n1,-6,0.66
OCCc1cn(C2CCN(c3cc(N4CCOCC4)ncn3)CC2)nn1,-6,0.92
O=C(CN1CCN(CC(F)(F)C(F)F)CC1)NCc1ccco1,-8,1.26
C=CCN(C)C(=O)c1cnc(C2CCN(C(=O)OC(C)(C)C)CC2)o1,-9,1.48
CCc1ccc(CN2CCC(Oc3ccc(C)cc3)(C(=O)O)CC2)nc1,4,-0.86
Cc1[nH]c2cc(-c3ccccc3)nn2c(=O)c1Cc1ccccc1,-1,0.08
Cc1noc(C2CN(Cc3ccoc3)C2)n1,-8,1.6
CN(C)C(=O)NCC(=O)NCCCn1cc(Cl)cn1,10,-0.98
CC(C)(C)C(=O)N1C2CCC1CC(n1ccnn1)C2 (centres undefined),-3,0.47
CCOC(C)(C)CS(=O)(=O)N(C)Cc1ccoc1C,-6,1.24
CC(C)c1noc(CN(C2CC2)S(=O)(=O)c2cccnc2)n1,-18,1.58
Cc1ccc2ncc(-c3nccn3C(C)C)cc2c1,-10,1.95
O=C(c1cscn1)N1CCC=Cc2ccccc21,1,-0.27
CCCCn1c(N)c(N(Cc2ccccc2OC)C(=O)c2cc(C)cc(C)c2)c(=O)[nH]c1=O,-4,0.45
FC(F)COc1cccc(CNC2C3CCOC3C23CCC3)n1 (centres undefined),-2,0.23
Cc1ccc(C(=O)N2CC[C@H](N(CCN3CCCC3)S(=O)(=O)N(C)C)C2)cc1C,-3,0.47
OCCC1(CNC[C@H](O)c2ccccc2F)CCC1,-15,1.9

SMILES,% Inhibition [%],Z score
Cc1cc(C(=O)N2CCO[C@H](c3ccccc3)CC2)ncn1,-14,2.71
COCCOCCNC(=O)c1sc(-c2c(C)noc2C)nc1C,28,-3.15
CC(C)[C@@H](CO)NC(=O)C1(C)COC1,-9,1.7
COc1ccc2ccn(Cc3ccccc3C)c(=O)c2c1,-10,1.98
C=CCC(C(=O)NC(C)c1nnc(C(F)(F)F)[nH]1)c1ccccc1 (centres undefined),-4,0.83
CC(C)c1ccc(CN2CCOc3c(O)cc(-c4ccccn4)cc3C2)cc1,-15,2.02
CCN1C(=O)c2cc3ccccc3n2C[C@@]1(C)C(=O)NCC(=O)NCc1ccc(OC)cc1,-4,0.41
Brc1ccccc1OCCN1CCc2nc[nH]c2C12CCOCC2,-18,2.77
Cn1nc(C(F)F)cc1C(=O)NC[C@H]1CCCN(c2ccnc(C(=O)O)c2)C1,-8,1.37
COC[C@H](C)NC(=O)Nc1cccc(Cl)c1F,-14,1.23
O=C(Cn1cccn1)N1CCC[C@@H]1CF,-7,0.86
CCN1C(=O)CO[C@H](C(=O)Nc2ccnc(C(C)(C)C)n2)[C@H]1c1cnn(C)c1,-1,0.06
CC(CS(=O)O)C(=O)NC1CCCCC1 (centres undefined),-2,0.38
COC1CS(=O)(=O)CC1NC(=O)Nc1c(C)cc(Cl)c2ccccc12 (centres undefined),5,-0.65
OC[C@H]1CCCN1c1ncnc2sc(-c3ccccc3)cc12,-54,6.33
O=C(Nc1ccc(F)cc1F)[C@H]1CCCN(S(=O)(=O)c2c[nH]c(C(=O)N3CCCCCC3)c2)C1,-3,0.28
C#CCNC(=O)CNC(=O)C#Cc1ccc(C(F)(F)F)cc1,27,-3.72
CC(C)(C)n1cc(CN[C@H]2CCc3nnc(Cc4ccccc4)n3C2)cn1,0,0.02
CN(C[C@H]1CCOC1)C(=O)C1CCCCC1,-3,0.41

SMILES,% Inhibition [%],Z score
O=C(NC1CCCCCC1)c1nn(Cc2ccccc2)c(=O)c2ccccc12,-8,1.27
Cc1nc(CN2CCc3ccccc3C2)no1,-12,2.34
O=C(c1ccccc1)N1CCN(C[C@H](O)CN2CCOCC2)CC1,-4,0.54
CC(C)(CNC1CCCCC1S(C)(=O)=O)CC1CCOCC1 (centres undefined),-4,0.42
O=C1c2ccccc2C(=O)N1CCCCNc1ccc2nnnn2n1,-9,1.47
CC(C)Oc1cccc(CN2CCn3nc(CNc4ncccn4)cc3C2)c1,-10,2.07
Cc1ncn(Cc2nc(Cc3ccccc3)no2)c1C,-9,0.89
Cc1cnc(CCNC(=O)Nc2ccnn2C2CCCCC2)s1,-7,1.15
CC(C)(C)CN(CCC#N)Cc1cccc(O)c1,-8,1.52
O=C(NCc1nnc2n1CCC2)C1CC2CCC1C2 (centres undefined),-1,0.18
CCC(NS(=O)(=O)c1ccco1)C(O)C(F)(F)F (centres undefined),3,-0.59
O=C(Nc1ccccc1OCc1ccccc1)c1ccco1,-8,0.73
Cc1nnc(CNC(=O)c2cccc(CN3CCCCCC3)c2)o1,-6,1.08
O=C(c1ccc2noc(-c3ccc(F)cc3)c2c1)N1CCN(c2cccc(Cl)c2)CC1,2,-0.21
O=S(=O)(Cc1cnn(-c2ccccc2)c1)c1cccs1,0,-0.02
C[C@H](NC(=O)c1ccn2ccnc2c1)c1ccc(OC(F)(F)F)cc1,-12,1.48
CN1CCN(Cc2n[nH]c(=O)n2Cc2ccc(Cl)cc2)CC1,-14,2.61
O=C(Nc1onc2c1CCC2)[C@@H]1COc2ccccc2O1,12,-1.65
O=C(c1cc(-n2ccnc2)ccn1)N1CCC(Cc2ccccc2)CC1,-10,1.77
